From the RNAGym collection of RNA variant scans (doi:10.7554/elife.90254)
Read counts are not given, so values of variants with three or more changes are uncertain.

B1: LINE1-mini (parent)
chain: GGCAGAGCUCAACACAGCGUGGCAAAGUGGCUGUGGCUAGACUGCC

Variants of: B1
Assay: self-cleavage, relative activity (ratio to wild type); higher = more cleavage; in vitro, sequencing; the parent is a self-cleaving ribozyme

Variant	self-cleavage
GGCAGAGUGCAACACAGCGUGGCAAAGUGGCUGUAGCUAGACUGCC	0.03
GGCAGAGUUCAACACAGCGAGGCAAUGUGGCUGUGGCUAGACUGCC	0.15
GGCAGAGUUCAACACAGCGAGGUAAAGUGGCUGUGGCUAGACUGCC	0.06
GGCAGAGUUCAACACAGCGAGGCAAAGUGGCUGUGGCUAUACUGCC	0.32
GGCAGAGUUCAACACAGCGCGGCAAAGUGGAUGUGGCUAGACUGCC	0.08
GGCAGAGUUCAACACAGCGCGGCAAAGUGACUGUGGCUAGACUGCC	0.01
GGCAGAGUUCAACACAGCGGGGCAAAGUGUAUGUGGCUAGACUGCC	0.16
GGCAGAGUUCAACACAGCGUGGCAAAGAGGGUGUGGCUAGACGGCC	0.35
GGCAGAGUUCAACACAGCGUGGCAAAGCGGCUGUGGGUAGAUUGCC	0.01
GGCAGAGUUCAACACAGCGUGGCAAAGGGCCUGUGGCUAGACUGCC	0.07
GGCAGAGUUCAACACAGCGUGGCAAAGGGGCUGUGGCUAAACUGCC	0.15
GGCAGAGUUCAACACAGCGUGGCAAAGGGGCUGUGGCUACACUGCC	0.05
GGCAGAGUUCAACACAGCGUGGCAAAGUGGCAGUGGCUAGACUUCC	0.07
GGCAGAGUUCAACACAGCGUGGCAAAGUGGCUGUGGCCUGACUGCC	0.13
GGCAGAGUUCAACACAGCGUGGCAAAGUGGCUGUGGCCAGACUGGC	0.23
GGCAGAGCACCACACAGCGUGGCCAAUUGGCUGUGGCUAGACUGCC	0.03
GGCAGAGCACCACACAGCGUGGCAAAGUGGCUGUGGCUUGACUGCC	0.01
GGCAGAGCACGUCACAGCGUGGCAAAGUGGCUUUGGCUAGACUGCC	0.01
GGCAGAGCACGACACAGCGUGGCAAAGAGGCUGUGGCUAGACCGGC	0
GGCAGAGCACUACAUAGCGUGGCAAAGUGCCUGUGGCUAGACUGAC	0.02
GGCAGAGCACUACACAGCGUGGCAAAGUGGCUUUGGCUAGACUGCC	0.04
GGCAGAGCACACCACAGGGUGGCAAAGUGGCUGUGGCUAGACUGCC	0.01
GGCAGAGCACAGCCCAGCGUGGCAAAGUGGCUGUGGCUAGACUGCC	0.02

Variant	self-cleavage
GGCAGAGCACAGUACAGCGUGGCAAAGUGGCUGUGGCUAGACUGCC	0.12
GGCAGAGCACAGCACAUCGUGCCAAAGUGGCUGUAACUAGACUGCC	0.06
GGCAGAGCACAGCACAGCGUGGCAAAGUGGCUUUGGCUAGACUGCC	0.01
GGCAGAGCACAGCACAGCGUGGCAAAGUGGCUGUGGCUAGACUAGC	0.14
GGCAGAGCACAACCAAGCGUGGCAAAGUGGCUGUGGAUAGACUGCC	0.06
GGCAGAGCACAACCCAGAGUAGCAAAGUGGCUGAGGCUAGACUGCC	0.21
GGCAGAGCACAACCCAGCGUGGAAAAGUGGCUGUGACUUGCCUGCC	0.01
GGCAGAGCACAACGCAGCGUGGCAAAGUGGCAGUGGCUAGACUGCC	0.04
GGCAGAGCACAACGCAGCGUGGCAAAGUGGCUGAGGCUAGACUGCC	0.05
GGCAGAGCACAACUCAGCGUGGCAAAGUGGCUGUGGGUAGACUGCC	0.14
GGCAGAGCACAACUCACCGUGGCAAAGUGUCUGUGACUAGACUGCC	0.07
GGCAGAGCACAACACCGAGUGGCAAAGUGGCUGUGGCUAGACUGCC	0.02
GGCAGAGCACAACACCGCGUGGCAAAGUGGCUGUGGCUAGAUUGCC	0.03
GGCAGAGCACAACACCGCGUGGCAAAGAGGCUGUGUCUAGACUGCU	0.03
GGCAGAGCACAACACGGCGUGACAAAGUGGCUGUGCCUAGACUGCC	0.01
GGCAGAGCACAACACUGCGGGGCAAAGUGGCAGUGGCUAGACUCCC	0.06
GGCAGAGCACAACACAGCGUGGCGAAGUGGCUUUGGCUAGACUGCC	0.24
GGCAGAGCACAACACAGCGUGGCUUAGUGGCUGUGGCUCGACUGCG	0.08
GGCAGAGCACAACACAGCGUGGCACAGUGGCUGUGGCUAGGCUGCC	0.03
GGCAGAGCACAACACAGCGUGGCAGAGUGGCUGUGGCUAGACUGUC	0.14
GGCAGAGCACAACACAGCGUGGCAGAGUGGCUGUGGCUAUACUGCC	0.37
GGCAGAGCACAACACAGCGUGGCAUAGUGGCUGUGGCUUGACUUCC	0.03
GGCAGAGCACAACACAGCGUGGCAUAAUGGCUGUGGCUAGACUGCC	0.19

Variant	self-cleavage
GGCAGAGCACAACACAGCGUGGCAUAGUGGCGGUGACUAGACUGCC	0.28
GGCAGAGCACAACACAGCGUGGCAACAUGGCUGUGGCUAGACUUCC	0.11
GGCAGAGCACAACACAGCGUGGCAAGGUGGCUGUGGCUCCACUGCC	0.1
GGCAGAGCACAACACAGCGUGGCAAGGUGGCUGUGGCUAGACUGCU	0.08
GGCAGAGCACAACACAGCGUGGCAAGGUGGCAGUGGCUAGACUGCC	0.13
GGCAGAGCACAACACAGCGUGGCAAAGUGGCUGUGGCUCGACUGUC	0.13
GGCAGAGCACAACACAGCGUGGCAAAGUGGCUGUGGCUCGACUCCC	0.01
GGCAGAGCACAACACAGCGUGGCAAAGUGGCUGUGGCUGGACCUCC	0.02
GGCAGAGCAAACCACAGCGUGGCAAAGUGGCUGUUGCUAGACUGCC	0.02
GGCAGAGCAAAAUACAGCGUGGCAAAGUGGCGGUGGCUAGACUGCC	0.03
GGCAGAGCAAAACACAUGGUGGCAAAGUGGCUGUGGCUAGGCUCCC	0.02
GGCAGAGCAAAACACAGCGUGGCAAAUUGGCUGUGGCUAGAUUGCC	0.02
GGCAGAGCAGAACACAGCGUGGCAAUGUGGCUGUUGCUAGACUGCC	0.01
GGCAGAGCAGAACACAGCGUGGCAAAAUUUCUGUGGCUAGACUGCC	0.03
GGCAGAGCAUAACACCGAGUGGCAAAGUGGCUGUGGCUAGGCUGCC	0.03
GGCAGAGCAUAACACAGAGUGGAAAAGUGGCUCUGGCUAGACUGGC	0.01
GGCAGAGCAUAACACAGCGUGGGAAAGUGGCUGUUGCUAGACUGCC	0.03
GGCAGAGCAUAACACAGCGUGGCAAAGUGGCUGUGGCUAGAGUGAC	0.03
GGCAGAGCAUAACACAGCGUGCCAAAAUGGCUGUGGCUAGACUGCC	0
GGCAGAGCAUAACACAGCGUGUCAAAUUGGCUGUGGCUAGACUGCC	0.09
GGCAGAGCAUAACACAGCGUGGCAAAUUGGCUGUGGCUAGACUGCC	0.07
GGCAGAGCAUAACACAGCGUGGCAAAGUAGCUGUGGCUAGACUGCC	0.04
GGCAGAGCAUAACACAGCGUGGCAAAGUGUCUGUGGCUAGACUGCC	0.05

Variant	self-cleavage
GGCAGAGCAUAACACAGCGUGGCAAAGUGUCUGUGGCUAGAAUGCC	0.05
GGCAGAGCAUAACACAGCGUGGCAAAGUGGCUGUCGCUAGACUGCC	0.07
GGCAGAGCAUAACACAGCGUGGCAAAGUGGCGGUGGCUAGACUGCC	0.02
GGCAGAGCACAAAACAGCGUGGCCAAGUGGCUGUGGCAAGACUGCC	0.12
GGCAGAGCACAAAACACCGUUGCAGAGUAGGUGUGGCUAGACUGCC	0.24
GGCAGAGCACAAAACAGCGUCUCAAAGUGGCUCUGACUAGACUGCC	0.02
GGCAGAGCACAAAACAGCGAGGCAAAGUGGCUGUGCCUAGACUGAC	0.08
GGCAGAGCACAAAACAGCGUGGCAAAGUGGCCGAGGCUAGACUGCU	0.36
GGCAGAGCACAAAACAGCGUGGCAAAGUGGCGGUGGAUAGACUGCC	0.52
GGCAGAGCACAAAACAGCGUGGCAAAGUGGCUGUGGCAAGACUGCC	0.78
GGCAGAGCACAAUACAGCGUGACAAAGUGACUGUGGUUAGACUGCC	0.2
GGCAGAGCACAACAAAGCGUGGCAAAGUUGCUGUGGCUAGACUAAC	0.05
GGCAGAGCACAACAUAGCGUGGCAAAGUGGCUGUGGCUUGACUGCA	0.28
GGCAGAGCACAACAUAGCGUCGCAAAGUUGCUGUGGCUAGACGGCC	0.05
GGCAGAGCACAACAUAGCGUGGCAAAAUGGCUGUCGCUAGACCGCC	0.11
GGCAGAGCACAACAUAGCGUGGCAAAGUGGCUGUCGCUAGACUCCC	0.56
GGCAGAGCACAACACAGAGUGGCAAAGUGGCUGUGGCUUGACUGCC	0.02
GGCAGAGCACAACACAGAGUGGCAAAGUGGCUGUGGCUAGACUGUC	0.1
GGCAGAGCACAACACAGAGUGCCAAAGUGGCUGUGACUAGACUGCC	0.03
GGCAGAGCACAACACAGAGUGGCAAAGUGGCUGUCGCUAGACUGAC	0.01
GGCAGAGCACAACACAGAGCGGCAAUGUGGCUGUGGCUAGACUGCU	0.07
GGCAGAGCACAACACAGGGUGGCAUUGAGGCCGUGGCUAGACUGCC	0.08
GGCAGAGCACAACACAGUGUGGCAACGUGGCGGUGGCUAGACUGCC	0.03

Variant	self-cleavage
GGCAGAGCACAACACAGUGUAGCAAAGUGGCUGUGGCUAGACUGCC	0.16
GGCAGAGCACAACACAGUGUGGCAAAGUGGCUAUGGCUAGACUGCC	0.02
GGCAGAGCACAACACAGUGUGGCAAAGUGGCUGCGGCUAGACUGCC	0.03
GGCAGAGCACAACACAGCGUGGGAUAGUUGCUGUGGCUAGAUUGCA	0.08
GGCAGAGCACAACACAGCGUGGUAAAGUGGCUGUGGAUAGACUGCC	0.08
GGCAGAGCACAACACAGCGUGGUAAAGUUGCUGUGGCUAGACUGAC	0.29
GGCAGAGCACAACACAGCGUGGCAAAGUGGAUGUGCCUAGACUGAA	0.1
GGCAGAGCACAACACAGCGUGGCAAAGUGGGUGUUGCUAGACUGCC	0.02
GGCAGAGCACAACACAGCGUGGCAAAGUGGCUGUGGAUAGCCUGCC	0.04
GGCAGAGCACAACACAGCGUGGCAAAGUGGCUGUGGUUCGACUGCC	0.4
GGCAGAGCACAACACAGCGUGGCAAAGUGGCUGUGGCUAGAUCGCC	0.25
GGCAGAGCACAACACAACGUGGCAAAGUGGUUAUGGCUAGACUGCC	0.02
GGCAGAGCACAACACAACGUGACAAAGUAGCUGUGACUAGACUGCC	0.04
GGCAGAGCACAACACAACGUGGCAAAGUGGCUGUGGCUAUACUGCC	0.28
GGCAGAGCACAACACACCGUGGCAAACUGGCUGUGGCUAGACUGCC	0.15
GGCAGAGCACAACACACCGUGGCAAAGUGGCUGUGGCCAGACUGCC	0.03
GGCAGAGCACAACACAUCGUGGCAACGUGGCUGUGGCUAGACUGCC	0.09
GGCAGAGCACAACACAUCGUGGCAAAAUGGCUUUGGCUAGACUGCC	0.08
GGCAGAGCACAACACAGCCUGGCGAAGUGGAUGUGGCUAGACUGCC	0
GGCAGAGCACAACACAGCUUGGAAAAGUGGCUGUGGCUAGAUUGCC	0.22
